Results reported in the supplement of paper PMC4967469.

What was measured:
Experiment in all cases: Viability of human cancer cell lines after 72 h of drug (GDSC screen)
[1] = compound: CC/C(=C(\c1ccccc1)c1ccc(OCCN(C)C)cc1)c1ccccc1 [Tamoxifen]; details: top dose 5 µM
Protocol: (§1)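 Human cancer cell lines in 384-well plates, medium with 10% serum, drug for 72 h over a 256-fold dose range (nine 2-fold or five 4-fold steps up to the top dose). Adherent lines were fixed and stained with the nucleic acid dye Syto60, suspension lines read with resazurin; signal relative to control wells, capped at 0 and 100%. One two-parameter sigmoid per drug and line, fitted in a mixed model over all curves with the slope shared within a line.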

[2] = compound: CCCC(=O)OCc1ccc(OC(=O)/C=C(C)/C=C/C=C(C)/C=C/C2=C(C)CCCC2(C)C)cc1 [VNLG/124]; details: top dose 5.12 µM; top dose inferred
Protocol: as §1

[3] = compound: CN(NC(=O)CC(=O)NN(C)C(=S)c1ccccc1)C(=S)c1ccccc1 [Elesclomol]; details: top dose 0.2 µM; top dose inferred
Protocol: as §1

[4] = compound: COc1cc(N2CCC(C(N)=O)CC2)ccc1Nc1nc(N)c(Cl)c(Nc2ccccc2S(=O)(=O)C(C)C)n1 [HG-5-88-01]; details: top dose 10 µM; top dose inferred
Protocol: as §1

[5] = compound: Cc1c(N)nc([C@H](CC(N)=O)NC[C@H](N)C(N)=O)nc1C(=O)N[C@H](C(=O)N[C@H](C)[C@@H](O)[C@H](C)C(=O)N[C@H](C(=O)NCCc1nc(-c2nc(C(=O)NCCC[S+](C)C)cs2)cs1)[C@@H](C)O)[C@@H](OC1OC(CO)C(O)C(O)C1OC1OC(CO)C(O)C(OC(N)=O)C1O)c1cnc[nH]1 [Bleomycin]
Protocol: as §1

[6] = compound: Cc1ccc(NC(=O)c2ccc(CN3CCN(C)CC3)cc2)cc1Nc1nc(-c2cccnc2)cs1 [Masitinib]; details: top dose 20 µM
Protocol: as §1

[7] = compound: O=C(/C=C/c1ccc(CN(CCO)CCc2c[nH]c3ccccc23)cc1)NO [LAQ824]; details: top dose 1.024 µM; top dose inferred
Protocol: as §1

[8] = compound: O=C(Nc1ccc(OC(F)(F)F)cc1)c1sccc1NCc1ccnc2ccccc12 [OSI-930]; details: top dose 10.24 µM
Protocol: as §1

[9] = compound: O=C(Nc1cccc(Nc2ncc(Br)c(NCCc3cnc[nH]3)n2)c1)N1CCCC1 [BX-912]; details: top dose 10.24 µM; top dose inferred
Protocol: as §1

[10] = compound: O=S(=O)(O)c1ccc2cc(N=Nc3cc(S(=O)(=O)O)c4cccnc4c3O)ccc2c1 [NSC-87877]; details: top dose 16 µM; top dose inferred
Protocol: as §1

[11] = top dose 50 µM, screen: GDSC drug entry 1378, top dose inferred
[12] = top dose 64 µM, screen: GDSC drug entry 190

Row | Cell Line | AUC [1] | IC50 [1] [µM] | AUC [2] | IC50 [2] [µM] | AUC [3] | IC50 [3] [µM] | AUC [4] | IC50 [4] [µM] | AUC [5, 11] | IC50 [5, 11] [µM] | AUC [5, 12] | IC50 [5, 12] [µM] | AUC [6] | IC50 [6] [µM] | AUC [7] | IC50 [7] [µM] | AUC [8] | IC50 [8] [µM] | AUC [9] | IC50 [9] [µM] | AUC [10] | IC50 [10] [µM]
1 | COLO-800 (melanoma, adherent) | 0.949 | > 5 | 0.986 | > 5.12 | 0.65 | 0.0322 | 0.648 | 1.59 | 0.094 | < 0.195 | 0.172 | 0.423 | 0.806 | 9.83 | 0.53 | 0.077 | 0.967 | > 10.2 | 0.907 | > 10.2 | 0.936 | > 16
2 | COR-L23 (large cell lung carcinoma, adherent) | 0.981 | > 5 | 0.988 | > 5.12 | 0.957 | > 0.2 | 0.913 | > 10 | 0.463 | 2.48 | 0.091 | < 0.25 | 0.876 | 18.9 | 0.358 | 0.0262 | 0.902 | > 10.2 | 0.891 | > 10.2 | 0.961 | > 16
3 | COR-L95 (small cell lung carcinoma, adherent) | 0.98 | > 5 | 0.984 | > 5.12 | 0.661 | 0.0378 | 0.946 | > 10 | 0.955 | > 50 | 0.54 | 5.23 | 0.854 | 19.8 | 0.567 | 0.1 | 0.979 | > 10.2 | 0.963 | > 10.2 | 0.978 | > 16
4 | CP50-MEL-B (melanoma, adherent) | 0.987 | > 5 | 0.988 | > 5.12 | 0.454 | 0.00937 | 0.86 | 8.26 | 0.66 | 8.66 | 0.985 | > 64 | 0.984 | > 20 | 0.677 | 0.198 | 0.973 | > 10.2 | 0.988 | > 10.2 | 0.987 | > 16
5 | CS1 (bone, adherent) | 0.982 | > 5 | 0.977 | > 5.12 | 0.504 | 0.0128 | 0.95 | > 10 | 0.331 | 0.994 | 0.654 | 11.3 | 0.837 | 15.6 | 0.571 | 0.102 | 0.961 | > 10.2 | 0.906 | > 10.2 | 0.939 | > 16
6 | CW-2 (large intestine, adherent) | 0.988 | > 5 | 0.988 | > 5.12 | 0.836 | 0.147 | 0.968 | > 10 | 0.711 | 12.9 | 0.971 | > 64 | 0.901 | > 20 | 0.966 | > 1.02 | 0.928 | > 10.2 | 0.829 | 7.01 | 0.965 | > 16
7 | CaR-1 (large intestine, adherent) | 0.963 | > 5 | 0.973 | > 5.12 | 0.862 | > 0.2 | 0.935 | > 10 | 0.249 | 0.4 | 0.392 | 1.74 | 0.94 | > 20 | 0.624 | 0.167 | 0.966 | > 10.2 | 0.914 | > 10.2 | 0.976 | > 16
8 | Calu-3 (lung adenocarcinoma, adherent) | 0.969 | > 5 | 0.951 | > 5.12 | 0.955 | > 0.2 | 0.956 | > 10 | 0.655 | 9.44 | 0.595 | 7.8 | 0.981 | > 20 | 0.419 | 0.0363 | 0.982 | > 10.2 | 0.927 | > 10.2 | 0.979 | > 16
9 | D-263MG (glioma, adherent) | 0.974 | > 5 | 0.977 | > 5.12 | 0.735 | 0.0688 | 0.911 | > 10 | 0.574 | 5.2 | 0.892 | > 64 | 0.983 | > 20 | 0.708 | 0.283 | 0.966 | > 10.2 | 0.873 | > 10.2 | 0.983 | > 16
10 | D-392MG (glioma, adherent) | 0.977 | > 5 | 0.981 | > 5.12 | 0.754 | 0.0899 | 0.951 | > 10 | 0.684 | 12.4 | 0.579 | 7.1 | 0.912 | > 20 | 0.71 | 0.315 | 0.931 | > 10.2 | 0.739 | 4.06 | 0.976 | > 16
11 | D-542MG (glioma, adherent) | 0.978 | > 5 | 0.984 | > 5.12 | 0.44 | 0.00823 | 0.963 | > 10 | 0.745 | 18.7 | 0.858 | > 64 | 0.956 | > 20 | 0.577 | 0.109 | 0.935 | > 10.2 | 0.981 | > 10.2 | 0.982 | > 16

By IC50 is meant the dose at which the fit gives 50% viability; a limit (>, <) means that the fit lies beyond the doses tested. AUC, from the same fit, is the share of area under the viability curve across the 256-fold dose range: 1 means no effect, lower means more sensitive. For some assays here: An inferred top dose is not printed in the source and was worked back from the curve model. For some assays here: Drugs with an entry number were screened twice under separate entries, and the two screens often disagree.
